{"source": "the BET-seq Pho4 binding data (Le et al. 2018)", "note": "This is one part of the list. These are noisy estimates, calculated here from bound and input reads.", "data": [{"target": "T1, Pho4 (S. cerevisiae) (UniProt P07270)", "T1 sequence": "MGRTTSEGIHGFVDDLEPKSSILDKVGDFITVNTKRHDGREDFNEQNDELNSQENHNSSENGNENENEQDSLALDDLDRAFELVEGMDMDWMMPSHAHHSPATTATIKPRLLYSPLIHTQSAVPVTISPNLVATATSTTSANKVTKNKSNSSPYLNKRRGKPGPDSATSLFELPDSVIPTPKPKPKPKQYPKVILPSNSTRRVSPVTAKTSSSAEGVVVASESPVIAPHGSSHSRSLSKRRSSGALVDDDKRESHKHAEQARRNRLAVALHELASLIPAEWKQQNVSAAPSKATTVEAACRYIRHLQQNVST", "assay": "relative binding free energy (BET-seq); higher = weaker binding", "conditions": "reference: library average", "units": {"relative binding free energy": "kcal/mol"}, "values": [{"sequence": "TTTCACACGTGAGGAT", "relative binding free energy": 0.35}, {"sequence": "TACAGCACGTGTGTGT", "relative binding free energy": -0.07}, {"sequence": "CGAGGCACGTGGGTGC", "relative binding free energy": -0.42}, {"sequence": "TATGACACGTGTTGGT", "relative binding free energy": 0.08}, {"sequence": "TTGCGCACGTGGTAGT", "relative binding free energy": -0.17}, {"sequence": "TGAATCACGTGGTTAT", "relative binding free energy": 0.2}, {"sequence": "GGCGGCACGTGAGCGG", "relative binding free energy": 0.1}, {"sequence": "TTCTTCACGTGAAGGC", "relative binding free energy": 0.44}, {"sequence": "GTTTGCACGTGCGGCT", "relative binding free energy": 0.04}, {"sequence": "CCTGTCACGTGGGTAG", "relative binding free energy": -0.04}, {"sequence": "TTGTGCACGTGGGTAC", "relative binding free energy": -0.03}, {"sequence": "TTGAACACGTGCAGGT", "relative binding free energy": -0.1}, {"sequence": "GTTTTCACGTGGCGTG", "relative binding free energy": 0.19}, {"sequence": "TTTGACACGTGTACGA", "relative binding free energy": 0.11}, {"sequence": "GGCGGCACGTGGGCGA", "relative binding free energy": -0.16}, {"sequence": "GTGCGCACGTGTAAAG", "relative binding free energy": 0.15}, {"sequence": "GTTATCACGTGTTTAC", "relative binding free energy": 0.17}, {"sequence": "GGTTACACGTGTTACA", "relative binding free energy": 0.31}, {"sequence": "TCGAGCACGTGGGATT", "relative binding free energy": -0.08}, {"sequence": "GGGGACACGTGATTCG", "relative binding free energy": 0.18}, {"sequence": "TTAAACACGTGGGTTA", "relative binding free energy": -0.13}, {"sequence": "AGTTGCACGTGATCGG", "relative binding free energy": 0.03}, {"sequence": "TTTCACACGTGTGTGG", "relative binding free energy": 0.12}, {"sequence": "AAAGACACGTGGGCGT", "relative binding free energy": -0.12}, {"sequence": "TTGCTCACGTGGAAGG", "relative binding free energy": 0.29}, {"sequence": "TTTAGCACGTGAGTAA", "relative binding free energy": 0.04}, {"sequence": "AAATGCACGTGGTGTG", "relative binding free energy": -0.18}, {"sequence": "TGTCTCACGTGTGTGT", "relative binding free energy": 0.34}, {"sequence": "TGAGGCACGTGCTATT", "relative binding free energy": -0.09}, {"sequence": "AAGGTCACGTGCGTTG", "relative binding free energy": 0.04}, {"sequence": "TGTTGCACGTGAATTA", "relative binding free energy": 0.23}, {"sequence": "ATTTGCACGTGTCGCG", "relative binding free energy": 0.04}, {"sequence": "TTGTTCACGTGTCGAG", "relative binding free energy": 0.36}, {"sequence": "GTATGCACGTGGAGTA", "relative binding free energy": -0.02}, {"sequence": "TGTTACACGTGGTATG", "relative binding free energy": 0.07}, {"sequence": "GCTTCCACGTGGGGGG", "relative binding free energy": 0.01}, {"sequence": "GATATCACGTGGTGTC", "relative binding free energy": 0.1}, {"sequence": "AGATGCACGTGGCGAT", "relative binding free energy": 0.09}, {"sequence": "GGGGACACGTGGAAAA", "relative binding free energy": 0.22}, {"sequence": "GAAAGCACGTGATAGT", "relative binding free energy": 0.15}, {"sequence": "TGGTGCACGTGGTGTC", "relative binding free energy": -0.01}, {"sequence": "TTTGTCACGTGGATAC", "relative binding free energy": 0.2}, {"sequence": "GTGGTCACGTGCAGGC", "relative binding free energy": -0.02}, {"sequence": "TGATTCACGTGTGACG", "relative binding free energy": 0.23}, {"sequence": "TTAAGCACGTGCGGTG", "relative binding free energy": -0.2}, {"sequence": "ATAATCACGTGAGTAT", "relative binding free energy": 0.22}, {"sequence": "GAGTTCACGTGCGCGT", "relative binding free energy": 0.25}, {"sequence": "GTGTTCACGTGCTGCT", "relative binding free energy": 0.06}, {"sequence": "AGTTCCACGTGCGGTT", "relative binding free energy": 0.05}, {"sequence": "TAATGCACGTGGGGTT", "relative binding free energy": -0.13}, {"sequence": "TTTGACACGTGGATGC", "relative binding free energy": -0.1}, {"sequence": "AAGTACACGTGGTGAT", "relative binding free energy": -0.06}, {"sequence": "AGTCTCACGTGGAGTA", "relative binding free energy": 0.29}, {"sequence": "AGGGGCACGTGAGCAA", "relative binding free energy": 0.06}, {"sequence": "GGAGACACGTGAGCGG", "relative binding free energy": 0.31}, {"sequence": "TATGGCACGTGGATAC", "relative binding free energy": -0.05}, {"sequence": "GGTGCCACGTGATGGT", "relative binding free energy": 0.2}, {"sequence": "ATGGGCACGTGCAGTA", "relative binding free energy": -0.17}, {"sequence": "TGTAACACGTGGATGT", "relative binding free energy": -0.04}, {"sequence": "CATTTCACGTGTTGAT", "relative binding free energy": 0.12}, {"sequence": "TAGTGCACGTGGGGTC", "relative binding free energy": -0.18}, {"sequence": "CGATTCACGTGGGTGA", "relative binding free energy": 0.18}, {"sequence": "GGTGACACGTGGTCGA", "relative binding free energy": -0.06}, {"sequence": "GTCTACACGTGATTTG", "relative binding free energy": 0.45}, {"sequence": "AAGTTCACGTGGCTAT", "relative binding free energy": 0.26}, {"sequence": "CGAGTCACGTGGTGTC", "relative binding free energy": 0.11}, {"sequence": "TTTGTCACGTGGCGGT", "relative binding free energy": 0.12}, {"sequence": "ATTTTCACGTGGCGTG", "relative binding free energy": 0.14}, {"sequence": "CGTCGCACGTGTTGTT", "relative binding free energy": -0.07}, {"sequence": "ACTTGCACGTGATGTG", "relative binding free energy": 0.12}, {"sequence": "CTATTCACGTGAGTTT", "relative binding free energy": 0.34}, {"sequence": "TACGACACGTGGGCGG", "relative binding free energy": -0.09}, {"sequence": "ATAGACACGTGGGAGT", "relative binding free energy": -0.08}, {"sequence": "GGCAGCACGTGGTAGA", "relative binding free energy": -0.09}, {"sequence": "GGTTTCACGTGTGGCA", "relative binding free energy": 0.24}, {"sequence": "GTGGACACGTGGATAT", "relative binding free energy": 0.14}, {"sequence": "ATCCGCACGTGGTGGG", "relative binding free energy": -0.13}, {"sequence": "TGCTTCACGTGTTATG", "relative binding free energy": 0.2}, {"sequence": "TTTATCACGTGTTCCT", "relative binding free energy": 0.31}, {"sequence": "GGCTGCACGTGCGGGC", "relative binding free energy": 0}, {"sequence": "GGGCTCACGTGGTGTA", "relative binding free energy": 0.17}, {"sequence": "GAGGGCACGTGGGGGA", "relative binding free energy": -0.16}, {"sequence": "ACGTGCACGTGGCAGG", "relative binding free energy": -0.22}, {"sequence": "TGGAACACGTGTAGTG", "relative binding free energy": 0.04}, {"sequence": "GTGGGCACGTGGGCGC", "relative binding free energy": -0.15}, {"sequence": "TGTATCACGTGTTGGG", "relative binding free energy": 0.18}, {"sequence": "TTTGTCACGTGCGGGC", "relative binding free energy": 0.17}, {"sequence": "GAAATCACGTGATGGG", "relative binding free energy": 0.25}, {"sequence": "CGTTGCACGTGAACGG", "relative binding free energy": 0.23}, {"sequence": "TTAATCACGTGAGAGG", "relative binding free energy": 0.29}, {"sequence": "GGTTCCACGTGGGTGT", "relative binding free energy": -0.1}, {"sequence": "TTTTGCACGTGTCGGT", "relative binding free energy": -0.08}, {"sequence": "TTGTGCACGTGGACTT", "relative binding free energy": 0.03}, {"sequence": "GGGAACACGTGGAGGT", "relative binding free energy": 0.06}, {"sequence": "TGCGTCACGTGGTAAA", "relative binding free energy": 0.07}, {"sequence": "AGGGGCACGTGGCAAT", "relative binding free energy": -0.24}, {"sequence": "GGGCGCACGTGATAGG", "relative binding free energy": 0.04}, {"sequence": "GCGTGCACGTGATTGG", "relative binding free energy": 0.05}, {"sequence": "TTGCACACGTGAGTTT", "relative binding free energy": 0.22}, {"sequence": "AGGGGCACGTGAGAGC", "relative binding free energy": 0.07}, {"sequence": "GGGCTCACGTGTTAAG", "relative binding free energy": 0.26}, {"sequence": "ATAAGCACGTGTGATT", "relative binding free energy": -0.09}, {"sequence": "GGCAGCACGTGGTACG", "relative binding free energy": -0.1}, {"sequence": "TAGGGCACGTGAGCGG", "relative binding free energy": 0.12}, {"sequence": "GAGTGCACGTGTTTGC", "relative binding free energy": 0.03}, {"sequence": "TATAACACGTGATTGT", "relative binding free energy": 0.15}, {"sequence": "GTGTTCACGTGTTGAG", "relative binding free energy": 0.22}, {"sequence": "CAGATCACGTGGTAGG", "relative binding free energy": 0.01}, {"sequence": "GCTTTCACGTGGTCGG", "relative binding free energy": 0.15}, {"sequence": "GGTGGCACGTGAGGTA", "relative binding free energy": 0.18}, {"sequence": "AATTTCACGTGTGGTA", "relative binding free energy": 0.25}, {"sequence": "TACGTCACGTGGTGGG", "relative binding free energy": 0.07}, {"sequence": "GTGTGCACGTGAGACT", "relative binding free energy": 0.09}, {"sequence": "GTTGGCACGTGGCTCA", "relative binding free energy": -0.11}, {"sequence": "ATGTACACGTGGGGCG", "relative binding free energy": -0.12}, {"sequence": "TGAGGCACGTGGTATC", "relative binding free energy": -0.2}, {"sequence": "GGTCGCACGTGTGTAA", "relative binding free energy": 0.03}, {"sequence": "AGTTTCACGTGAAGAA", "relative binding free energy": 0.26}, {"sequence": "TGTAACACGTGGGCTA", "relative binding free energy": -0.18}, {"sequence": "AATAGCACGTGTACGG", "relative binding free energy": 0}, {"sequence": "TTGTGCACGTGGTCCG", "relative binding free energy": -0.19}, {"sequence": "TGAAGCACGTGAGTGT", "relative binding free energy": 0.2}, {"sequence": "GATTACACGTGTTTGA", "relative binding free energy": 0.25}, {"sequence": "TGGCGCACGTGGGGTG", "relative binding free energy": -0.16}, {"sequence": "TTGTACACGTGAAATG", "relative binding free energy": 0.2}, {"sequence": "TGTATCACGTGATGTC", "relative binding free energy": 0.28}, {"sequence": "GAAGGCACGTGTAGTT", "relative binding free energy": 0.01}, {"sequence": "TTTTACACGTGAGGGC", "relative binding free energy": 0.35}, {"sequence": "GGGTTCACGTGGTGCA", "relative binding free energy": 0.27}, {"sequence": "GTGCGCACGTGTGATA", "relative binding free energy": 0.09}, {"sequence": "TGTTCCACGTGCTGGT", "relative binding free energy": -0.04}, {"sequence": "AATGACACGTGTTATT", "relative binding free energy": 0.13}, {"sequence": "ACAGTCACGTGTTGGG", "relative binding free energy": 0.11}, {"sequence": "GTTGGCACGTGATGTC", "relative binding free energy": 0.12}, {"sequence": "TAAATCACGTGATTGG", "relative binding free energy": 0.33}, {"sequence": "ACATGCACGTGTGAGT", "relative binding free energy": 0.05}, {"sequence": "GTAGACACGTGTGTCG", "relative binding free energy": 0.06}, {"sequence": "GGTCTCACGTGAGTGC", "relative binding free energy": 0.38}, {"sequence": "TTTGTCACGTGCTTTT", "relative binding free energy": 0.08}, {"sequence": "AGCCGCACGTGTGGTT", "relative binding free energy": -0.03}, {"sequence": "AAAAACACGTGGGTTG", "relative binding free energy": -0.04}, {"sequence": "GGTAGCACGTGACGGA", "relative binding free energy": 0.24}, {"sequence": "CCTGGCACGTGGGAGG", "relative binding free energy": -0.18}, {"sequence": "TTATGCACGTGAGGTG", "relative binding free energy": 0.11}, {"sequence": "GTGTGCACGTGCTGTG", "relative binding free energy": 0}, {"sequence": "ATGTTCACGTGTATGG", "relative binding free energy": 0.35}]}]}
